Substitutions are numbered along the chain they refer to. Where two headings read alike, the source gives them in different places. Each block holds one binder with its values, some of them ahead of it.
Tests used:
[1] = target: T1, huFGFR3b-Fc (human); test: BIAcore; apparent KD
T1 construct: also called recombinant human FGFR3b-Fc
T1 chain: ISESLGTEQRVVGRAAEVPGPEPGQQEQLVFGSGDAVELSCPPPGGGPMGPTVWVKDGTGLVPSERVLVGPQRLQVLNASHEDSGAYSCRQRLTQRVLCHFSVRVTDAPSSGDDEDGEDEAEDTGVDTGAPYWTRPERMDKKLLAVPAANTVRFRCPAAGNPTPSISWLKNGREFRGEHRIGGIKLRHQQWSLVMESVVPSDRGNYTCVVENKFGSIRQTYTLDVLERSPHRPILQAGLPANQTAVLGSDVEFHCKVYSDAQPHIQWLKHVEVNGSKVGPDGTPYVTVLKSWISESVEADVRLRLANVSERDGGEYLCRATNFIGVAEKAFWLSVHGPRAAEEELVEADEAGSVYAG

[2] = target: T2, huFGFR3c-Fc (human, UniProt P22607 23-375); test: BIAcore; apparent KD
T2 construct: also called recombinant human FGFR3c-Fc
T2 sequence: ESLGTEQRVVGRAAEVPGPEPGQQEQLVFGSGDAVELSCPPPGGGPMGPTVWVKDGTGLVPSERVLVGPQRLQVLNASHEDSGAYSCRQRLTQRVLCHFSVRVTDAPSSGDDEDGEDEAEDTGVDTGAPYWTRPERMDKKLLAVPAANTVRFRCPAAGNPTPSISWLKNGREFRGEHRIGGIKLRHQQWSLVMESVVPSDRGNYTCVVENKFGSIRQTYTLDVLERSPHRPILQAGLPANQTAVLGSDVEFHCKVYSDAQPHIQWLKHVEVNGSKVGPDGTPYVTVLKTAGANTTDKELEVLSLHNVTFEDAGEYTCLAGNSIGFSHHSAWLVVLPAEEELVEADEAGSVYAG

[3] = target: T3, cynoFGFR3c-Fc (cynomolgus monkey, UniProt A0A2K5V1U5 23-376); test: BIAcore; apparent KD
T3 construct: also called cyFGFR3c-Fc; cyFGFR3c
T3 sequence: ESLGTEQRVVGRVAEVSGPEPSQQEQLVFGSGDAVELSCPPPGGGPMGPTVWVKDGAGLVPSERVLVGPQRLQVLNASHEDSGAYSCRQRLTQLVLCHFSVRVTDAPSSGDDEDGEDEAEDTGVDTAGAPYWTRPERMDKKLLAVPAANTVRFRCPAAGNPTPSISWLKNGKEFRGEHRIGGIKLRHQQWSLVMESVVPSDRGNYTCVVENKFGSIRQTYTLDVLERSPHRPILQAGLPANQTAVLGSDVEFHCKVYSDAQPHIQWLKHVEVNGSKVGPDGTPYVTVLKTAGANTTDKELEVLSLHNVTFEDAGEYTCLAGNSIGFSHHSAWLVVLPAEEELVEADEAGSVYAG

[4] = target: T2, huFGFR3c-Fc; test: BIAcore, in presence of 200 nM FGF1; apparent KD
[5] = target: T2, huFGFR3c-Fc; test: BIAcore, competition with FGF1 experiment, no FGF1; apparent KD
[6] = target: T4, hCD138 (ELISA of Table 29) (human, UniProt P18827 23-254, limits assumed); test: hCD138 ELISA
T4 construct: also called human CD138
T4 sequence: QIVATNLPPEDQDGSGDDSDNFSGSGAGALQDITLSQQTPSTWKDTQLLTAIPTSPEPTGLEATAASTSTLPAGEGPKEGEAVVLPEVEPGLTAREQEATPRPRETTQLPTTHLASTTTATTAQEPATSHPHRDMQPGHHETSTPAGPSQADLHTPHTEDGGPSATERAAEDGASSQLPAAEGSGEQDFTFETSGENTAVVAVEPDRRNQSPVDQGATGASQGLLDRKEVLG

[7] = target: T1, huFGFR3b-Fc; test: BIAcore T200, Fynomer captured on 9E10, FGFR3-Fc injected; apparent KD
[8] = target: T2, huFGFR3c-Fc; test: as above
[9] = target: T3, cynoFGFR3c-Fc; test: as above
[10] = target: T2, huFGFR3c-Fc; test: BIAcore, Fynomer captured on 9E10, huFGFR3c-Fc injected, no FGF1; apparent KD
[11] = target: T2, huFGFR3c-Fc; test: BIAcore, Fynomer captured on 9E10, huFGFR3c-Fc injected in presence of 200 nM FGF1; apparent KD
[12] = target: T5, huD1-Fc (human, UniProt P22607 23-126); test: ELISA on plate-coated antigen, Fynomer 200 nM with anti-myc 9E10, anti-mouse IgG-HRP
T5 construct: domain: D1; also called huFGFR3-D1; hFGFR3-D1
T5 sequence: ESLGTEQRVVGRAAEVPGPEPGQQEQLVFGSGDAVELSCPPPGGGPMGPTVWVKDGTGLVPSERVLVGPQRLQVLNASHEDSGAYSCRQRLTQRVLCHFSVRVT

[13] = target: T6, huD2-Fc (human, UniProt P22607 151-244); test: as above
T6 construct: domain: D2; also called huFGFR3-D2; human FGFR3c D2 domain
T6 sequence: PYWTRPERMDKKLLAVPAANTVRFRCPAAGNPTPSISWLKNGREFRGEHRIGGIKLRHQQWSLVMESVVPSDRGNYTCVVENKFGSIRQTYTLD

[14] = target: T5, huD1-Fc; test: as above; remark: listed apart in the source
[15] = target: T6, huD2-Fc; test: as above; remark: listed apart in the source
[16] = target: T5, huD1-Fc; test: as above; remark: listed apart in the source
[17] = target: T6, huD2-Fc; test: as above; remark: listed apart in the source
[18] = target: T5, huD1-Fc; test: as above; remark: listed apart in the source
[19] = target: T6, huD2-Fc; test: as above; remark: listed apart in the source
[20] = target: T5, huD1-Fc; test: as above; remark: listed apart in the source
[21] = target: T6, huD2-Fc; test: as above; remark: listed apart in the source
[22] = target: T5, huD1-Fc; test: as above; remark: listed apart in the source
[23] = target: T6, huD2-Fc; test: as above; remark: listed apart in the source

B1: FF40L54A5 (designed binder, not shown: small tags and cut ends)
chain: GVTLFVALYDYEVMSTTALSFHKGEKFQILSQSPHGQYWEARSLTTGETGWIPSNYVAPVDSIQ
- Kd [1]: 0.17 nM
- Kd [2]: 0.17 nM
- Kd [3]: 0.16 nM
- Kd [4]: 0.23 nM
- Kd [5]: 0.21 nM

B4: FF44L65G12 (designed binder, not shown: small tags and cut ends)
chain: GVTLFVALYDYEVYGPTPMLSFHKGEKFQILRGGQGPYWEARSLTTGETGLIPSNYVAPVDSIQ
notes: Fynomer
- Kd [7]: 0.69 nM
- Kd [8]: 0.685 nM
- Kd [9]: 0.11 nM
- Kd [10]: 0.14 nM
- Kd [11]: 0.12 nM
- binding result [12]: no binding (tested: 200 nM)
- binding result [13]: no binding (tested: 200 nM)

B6: FF2L4C3 (designed binder, not shown: small tags and cut ends)
chain: B4 chain with R32N, G33S, G34S, Q35E
notes: Fyn SH3-derived polypeptide (Fynomer) expressed in E. coli from pQE12; also called parental Fynomer
- Kd [7]: 4.7 nM
- Kd [8]: 4.6 nM
- Kd [9]: 5.9 nM
- Kd [10]: 4 nM
- Kd [11]: 3.8 nM
- binding result [16]: no binding (tested: 200 nM)
- binding result [17]: no binding (tested: 200 nM)

B8: FF43L65D5 (designed binder, not shown: small tags and cut ends)
chain: B4 chain with G33K, Q35K, T45A
notes: Fynomer
- Kd [7]: 0.335 nM
- Kd [8]: 0.23 nM
- Kd [9]: 0.16 nM
- Kd [10]: 0.06 nM
- Kd [11]: 0.07 nM
- binding result [20]: no binding (tested: 200 nM)
- binding result [21]: no binding (tested: 200 nM)

B9: FF44L65B7 (designed binder, not shown: small tags and cut ends)
chain: B4 chain with G33R, Q35S
notes: Fynomer
- Kd [7]: 0.1 nM
- Kd [8]: 0.25 nM
- Kd [9]: 0.26 nM
- Kd [10]: 0.17 nM
- Kd [11]: 0.13 nM
- binding result [22]: no binding (tested: 200 nM)
- binding result [23]: no binding (tested: 200 nM)

Second part, the binder after the results:

- EC50 [6]: 0.98 nM
B2: hF6-LC-G7 (bispecific antibody, human IgG1, kappa)
heavy: QVQLVQSGAEVVKPGASVKLSCKASGYTFTSYYLYWVKKAPGQGLDWIGEIYPRSGGTNINEKFLSRVTLTADTSTSTAYLELSSLTSEDTAVYYCTRSLLYWGQGTTLTVSS[letters of human IgG1 constant region left out]
light: DVVMTQTPLSLSVTPGQPASISCKSSQSLLASDGKTYLNWLLQRPGQSPKRLIYLVSKLDSGVPNRFSGSGSGTDFTLQISRVEAEDVGLYYCWQGAHFPFTFGSGTKLEIKRTVAAPSVFIFPPSDEQLKSGTASVVCLLNNFYPREAKVQWKVDNALQSGNSQESVTEQDSKDSTYSLSSTLTLSKADYEKHKVYACEVTHQGLSSPVTKSFNRGECGGGGSGGGGSGGGGSGVTLFVALYDYEVYGPTPMLSFHKGEKFQILKGGSGPYWEARSLTTGETGLIPSNYVAPVDSIQ
notes: IgG1/kappa

- EC50 [6]: 1.07 nM
B3: hF6-LN-G7 (bispecific antibody, human IgG1, kappa)
heavy: B2 heavy
light: GVTLFVALYDYEVYGPTPMLSFHKGEKFQILKGGSGPYWEARSLTTGETGLIPSNYVAPVDSIQGGGGSGGGGSGGGGSDVVMTQTPLSLSVTPGQPASISCKSSQSLLASDGKTYLNWLLQRPGQSPKRLIYLVSKLDSGVPNRFSGSGSGTDFTLQISRVEAEDVGLYYCWQGAHFPFTFGSGTKLEIKRTVAAPSVFIFPPSDEQLKSGTASVVCLLNNFYPREAKVQWKVDNALQSGNSQESVTEQDSKDSTYSLSSTLTLSKADYEKHKVYACEVTHQGLSSPVTKSFNRGEC
notes: IgG1/kappa

- Kd [7]: 0.47 nM
- Kd [8]: 0.335 nM
- Kd [9]: 0.28 nM
- Kd [10]: 0.32 nM
- Kd [11]: 0.23 nM
- binding result [14]: no binding (tested: 200 nM)
- binding result [15]: no binding (tested: 200 nM)
B5: FF44L65G7 (designed binder, not shown: small tags and cut ends)
chain: B4 chain with Q35D
notes: Fynomer

- Kd [7]: 0.26 nM
- Kd [8]: 0.19 nM
- Kd [9]: 0.21 nM
- Kd [10]: 0.17 nM
- Kd [11]: 0.13 nM
- binding result [18]: no binding (tested: 200 nM)
- binding result [19]: no binding (tested: 200 nM)
B7: FF48L66G7 (designed binder, not shown: small tags and cut ends)
chain: B4 chain with R32K, Q35S
notes: Fynomer; also called FF48L66G7 (G7)

— patent publication US20220249679A1 (MITSUBISHI TANABE PHARMA, published 2022)
